The list shows a part of the results. At the low end of the ranking the order means little. Measured with an extract: partners may take part in the binding.

This experiment deals with T1, HNF4alpha2 (COS-7 nuclear extract) (UniProt P41235).
T1 sequence: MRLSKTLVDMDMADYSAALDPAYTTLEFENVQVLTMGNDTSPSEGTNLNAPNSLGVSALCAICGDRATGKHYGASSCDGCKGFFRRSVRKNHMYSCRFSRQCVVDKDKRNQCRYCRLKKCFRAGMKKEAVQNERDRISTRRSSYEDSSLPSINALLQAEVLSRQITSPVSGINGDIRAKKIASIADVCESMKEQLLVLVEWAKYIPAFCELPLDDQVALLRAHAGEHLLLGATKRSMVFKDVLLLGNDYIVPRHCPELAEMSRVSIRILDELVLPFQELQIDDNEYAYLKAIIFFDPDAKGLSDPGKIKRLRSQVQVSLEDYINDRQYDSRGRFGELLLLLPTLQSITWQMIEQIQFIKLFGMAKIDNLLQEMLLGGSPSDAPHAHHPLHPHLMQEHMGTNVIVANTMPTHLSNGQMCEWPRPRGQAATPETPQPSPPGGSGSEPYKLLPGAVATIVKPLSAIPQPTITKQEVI
In words: protein-binding microarray. Particulars: COS-7 nuclear extract on double-stranded Agilent 4x180k PBM; binding buffer, salt, pH and temperature not given; high values mean tight binding; double strand, one strand shown; sequences stand for … in …GCCTAGGGAGATTAGAGTATCGGTCGA
Turning to ATTCTGCATTTTTCTTTCCTGTAAATAATT, the binding signal (log2 normalized intensity) was found to be 1.26.

With TCACCAGCTAAGCTGTTACTCATTCCCAGG, the binding signal (log2 normalized intensity) is -0.888.

As to TAAGCAGAGGATGGGAATTAGGGAGTAGGG, the binding signal (log2 normalized intensity) was -1.12.

In the case of AGGCAGAGAGGCTGCTCAGTTTAAGTCAAA, the binding signal (log2 normalized intensity) was -1.13.

Regarding CAGGGGAATGGAGACACACCTGCGGTGACT, the binding signal (log2 normalized intensity) was -1.13.

For GGCAATTGTGTTTGTCTTAGGGGGTCTGGT, the binding signal (log2 normalized intensity) came to 1.53.

Turning to AACTTTTCCATGTCCAAAGGTCTTCATGAG, the binding signal (log2 normalized intensity) turned out to be 3.46.

On to ATCTCACAGATTAAGTCACGTGGAGATAAC, for which the binding signal (log2 normalized intensity) stood at 1.39.

Turning to CAACTGGTATGTTAGATTAGTGTGCAGCTT, the binding signal (log2 normalized intensity) worked out at 0.891.

Regarding ATTCAGCATTGCTTGGGAGCAGTCCTTGGG, the binding signal (log2 normalized intensity) is -0.333.

In the case of AGAGGCACCAAGGCCGGAAAAGATTAGATT, the binding signal (log2 normalized intensity) is -1.08.

Regarding GAGAGAGAGAATAGCTCAGGTCCAAGGAAC, the binding signal (log2 normalized intensity) is -1.12.

With GGAGACCCATGGCAGAGGCTGTACTCCTCA, the binding signal (log2 normalized intensity) was -1.16.

Regarding GCTGGAAAGGCCACCACAAACCCTTCATCC, the binding signal (log2 normalized intensity) is -1.24.

Consider GTGGGGGTGGAGGCAGCAGCTCCAATTAGG, for which the binding signal (log2 normalized intensity) is -1.06.

For the sequence AGAGCAGCTAGTAGGAGCGGGCTTAACTAG, the binding signal (log2 normalized intensity) was -0.97.

Consider CCTTTGAGGAGGCCTTTCCTGACCCCTCCT, for which the binding signal (log2 normalized intensity) was determined as 4.34.

Take GGCACAGGTCAAAAATGATGCCTGACTCAA: the binding signal (log2 normalized intensity) was -1.06.

For CATCATCTGTTTGTACGCGTCGAACTAGCT, the binding signal (log2 normalized intensity) is -0.65.

Consider CTTAGAGATAATGGGGGAGCCACTGCAGCT, for which the binding signal (log2 normalized intensity) was -1.22.

As to AGGGTCTGGTTCCAAAGTCTGCAGATTAAA, the binding signal (log2 normalized intensity) was 1.61.

On to GTCCCTGGGGACAGGGATTAAGTACCGCTC, for which the binding signal (log2 normalized intensity) is -1.17.

For AAATACATTCTGAACCAATGCCACAGAAAA, the binding signal (log2 normalized intensity) is -1.14.

On to ATCTCTGTCCCTGATACCATTATCTCCAGC, for which the binding signal (log2 normalized intensity) is -0.687.

With TGACATCCCTATGTTGTCCCTGCCCTTTGT, the binding signal (log2 normalized intensity) is 3.86.

Turning to AGAGAAATGAGGCACAGTAACCTGACCCCC, the binding signal (log2 normalized intensity) was determined as 5.46.

As to AAGGTAAATATTGTCAGTGAGGAATGTGCA, the binding signal (log2 normalized intensity) worked out at 0.722.

As for GGGCGCTGTCCGCCGCCTCGTGGTGCTGAT, the binding signal (log2 normalized intensity) was -1.1.

Regarding CGCTGTAGAAAGTGGTTTCAAGGTGACCCC, the binding signal (log2 normalized intensity) came to 5.64.

Turning to TTAAAGGATATCATCAGTGCCATTCATTAG, the binding signal (log2 normalized intensity) is -1.

Regarding AAGGTCAGGGGCAGGGTCGCGCGGGCTGCT, the binding signal (log2 normalized intensity) was -1.09.

Regarding CTTCCAGAAATGCCAAGATCAGGGCTAAGA, the binding signal (log2 normalized intensity) is -1.09.

Regarding CTCTTATCTGAATGTATGGGCTATTTATGA, the binding signal (log2 normalized intensity) came out at 1.27.

In the case of CTTACTTTTATCAGGTAAAGATATGGAACA, the binding signal (log2 normalized intensity) was found to be 1.6.

On to GGTTTTCTTGCAAACATTACTGGCACACAG, for which the binding signal (log2 normalized intensity) worked out at 0.444.

Take ATCTCTGTGGGAGGGAAGGAGCCTAACTTT: the binding signal (log2 normalized intensity) was -1.17.

Consider CCTAACTTGTGGCTGGGTGATCTGGGAAAC, for which the binding signal (log2 normalized intensity) is -0.353.

GAGGTCACAACAGAAAGCAAGAGCACAAGA: the binding signal (log2 normalized intensity) is -1.09.

As to CTTTTTAGGAAACATTTCCATTGAAGCAGA, the binding signal (log2 normalized intensity) was -1.15.

As to TCAAATATGTCTCTCCTATTCAGGTATTTG, the binding signal (log2 normalized intensity) worked out at 2.03.

Turning to CTCCCTTGCACCAGTTTCTCAACAGACCCC, the binding signal (log2 normalized intensity) worked out at 3.04.

As to GCACAGTGCCTGGCATGTGATAGGCATGCA, the binding signal (log2 normalized intensity) was 0.972.

As for CTGCACAGCATAGAAAACAAGTTAGACAGT, the binding signal (log2 normalized intensity) was -1.1.

Regarding CTAGGAGACAACTTAGAATTTCATTTTGCT, the binding signal (log2 normalized intensity) is -1.11.

Turning to CATTGTTGGGATAAAATTCAACAGAGCTAT, the binding signal (log2 normalized intensity) is -1.21.

Consider CCACTTACCACCCACAGAGGGGGTTTGTTT, for which the binding signal (log2 normalized intensity) is -0.547.

Take TCTCTACGACTTGCTTATCTTACGCAACTG: the binding signal (log2 normalized intensity) is -0.407.

As to AGAAAACACAGAGATCTGATCAAAGGTCAT, the binding signal (log2 normalized intensity) was 5.9.

For the sequence GGTGAAGGGGTCACCTCGCTCCCCTCCTGT, the binding signal (log2 normalized intensity) was found to be 1.11.

As for TAGGGAAAATAGTGACCCTGTCTCTCAGTC, the binding signal (log2 normalized intensity) worked out at 0.859.

As for CTCACCTGGATGTTTTGATGAACTTTCAAG, the binding signal (log2 normalized intensity) worked out at 2.09.

In the case of CATACTTCTTCCTGTTTGACCTTCGAACCC, the binding signal (log2 normalized intensity) came to 9.59.

For GCACACTCGCCTGGCTCCCCACGTGGCAAT, the binding signal (log2 normalized intensity) was -1.14.

With CTCCACCTGGAGGGACTTTGTCCCACAGGA, the binding signal (log2 normalized intensity) stood at 3.51.

TCCAAGATCCAACTCTGAAGATTCACAGGT: the binding signal (log2 normalized intensity) is -1.09.

CGCCGCGGGCGCCCTGGTCTCTGCTACCTG: the binding signal (log2 normalized intensity) is -1.15.

Turning to GTGACCTTTGCTCCAGTTCCCAATAAGTTG, the binding signal (log2 normalized intensity) is 4.19.

Turning to TGGCCCAAGGCCTCTGACATAAATCACATT, the binding signal (log2 normalized intensity) was -0.63.

ACAAGCAACCCTCCTCCCTTTGGCCATGAA: the binding signal (log2 normalized intensity) was 1.54.

For GATGCCATTCCCTGCAGGTGAAACTCCAGG, the binding signal (log2 normalized intensity) is -1.02.

In the case of TTGTGCTAGAAAGAATGAGAAGGGCTAATA, the binding signal (log2 normalized intensity) is -1.13.

Turning to GCCCCTGGCTGGGCCCTGACCTCAAGTGAC, the binding signal (log2 normalized intensity) worked out at 1.91.

GCTACAACTGGACTAGACAGGCTTGTCGAG: the binding signal (log2 normalized intensity) is -1.17.

Regarding GGAAATGAATTGATAAACACTTGCCTACTT, the binding signal (log2 normalized intensity) was -1.14.

For the sequence CCACAGCGTTTTCCTCCAGCCTGTCGGAAT, the binding signal (log2 normalized intensity) is -0.971.

Turning to TTGATCCAGGATCCTTCTTGACCAGGCAAG, the binding signal (log2 normalized intensity) was -0.434.

On to TCTTGTAAGGTTCTTGTATCTGATCTGTGT, for which the binding signal (log2 normalized intensity) is 2.4.

For the sequence CATCTCAAAGGCATTTTTTGTAGATGCCTG, the binding signal (log2 normalized intensity) turned out to be 0.801.

For GGGGGTTTGCAACCTTTGATAACCTACAAC, the binding signal (log2 normalized intensity) turned out to be 1.03.

Turning to GAAACCTAGGAGTTATCTAAGACCCATCCC, the binding signal (log2 normalized intensity) worked out at 1.29.

Regarding TACGAAGGGTTTAAAGGGCAGAAGAAGGGA, the binding signal (log2 normalized intensity) was 0.686.

With CAAACATTAGCTGCAGATTCCACCTTAGAG, the binding signal (log2 normalized intensity) is -0.782.
